# From PubChem BioAssay AID1240 (Sanford-Burnham Center for Chemical Genomics, 2008)
# The whole screen tested about 50,000 compounds, of which about 800 (1.6%) showed an effect of 50% or more. The list shows a part of the results.
# Biological target: Bcl-2-like protein 10 (Homo sapiens) (UniProt Q9HD36)
# Experiment: TR3 peptide-Bcl-B binding displacers, biochemical primary FP assay, phenotype converters (AID 1240);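 note: 0% = Bcl-B with tracer peptide and DMSO and 100% = tracer peptide lacking Bcl-B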
# Conditions: GST-Bcl-B / FITC-TR3 peptide fluorescence polarization; stronger effect = higher value; compound at 3.75 mg/L
# Sequence of UniProt Q9HD36 (Q9HD36 whole entry, looked up): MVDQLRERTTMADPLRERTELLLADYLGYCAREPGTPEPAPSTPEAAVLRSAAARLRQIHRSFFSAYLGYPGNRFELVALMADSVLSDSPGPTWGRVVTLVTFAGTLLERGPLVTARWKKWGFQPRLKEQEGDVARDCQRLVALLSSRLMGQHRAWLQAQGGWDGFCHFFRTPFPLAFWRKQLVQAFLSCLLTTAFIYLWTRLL
row,SMILES,displacement [%]
1,COc1ccc(Br)cc1/C=N\n1c(C)nnc1C,-0.6
2,O=c1/c(=C/c2ccc(C(F)(F)F)cc2)sc2nc3ccccc3n12,2
3,Cn1cccc1CN1CCN(C2CCCCC2)CC1,10.8
4,COc1cc(/C=N/n2cnnc2)ccc1OC(=O)c1ccco1,-3.2
5,CCc1ccc(S(=O)(=O)Nc2cc(Br)c(O)c3ccccc23)cc1,20.2
6,CC(=O)c1ccc(NC(=O)CCCC(=O)OCC(F)(F)C(F)F)cc1,-5.8
7,Cc1cccc2c1N(C(=O)c1ccco1)C(C)(C)c1ssc(=S)c1-2,-8.5
8,O=C(COc1ccc(Cl)cc1)Nc1ccc2c(c1)Cc1ccccc1-2,5.4
9,COC(=O)c1c(-c2ccc(OC)c(OC)c2)csc1NC(=O)c1ccc(OCC(C)C)cc1,0
10,N#CC1=C(N)SC(N)=C(C#N)C1c1ccc(Cl)cc1,-10.9
11,CCCCOC(=O)c1ccc(NC(=O)c2cc3ccccc3o2)cc1,-6.2
12,Cc1ccc(Cl)cc1NC(=O)CCC1CCCC1,-11.6
13,O=c1nc(/C=C/c2ccc(N3CCOCC3)cc2)cc(C(F)(F)F)[nH]1,-61.9
14,O=C(c1cc2nc(-c3ccc([N+](=O)[O-])cc3)cc(C(F)(F)F)n2n1)N1CCOCC1,14.4
15,COc1cccc(OCCOCCOc2cccc(OC)c2)c1,13.9
16,Cc1ccc(S(=O)(=O)Nc2ccc(O)cc2)c(C)c1,-6.1
17,CC1=C(C(=O)Nc2cccc(C)c2)C(c2ccc(O)cc2)NC(=O)N1 (configuration not stated),3.3
18,CC1CCCC(C)N1C(=O)CCN1C(=O)c2ccccc2C1=O (configuration not stated),7.8
19,COc1ccc(OC)c(C2C(C(=O)/C=C/c3ccccc3)=C(O)C(=O)N2CCCCCC(=O)O)c1 (configuration not stated),-11.1
20,Cc1nnc(N/N=C/c2ccc([N+](=O)[O-])cc2)[nH]c1=O,-3.4
21,Cc1ccc(OCC(=O)N/N=C\c2cccc(OC(=O)c3cccs3)c2)cc1,1.5
22,COc1ccc(N=C2NC(=O)/C(=C/c3ccc(I)o3)S2)cc1,-3
23,CCc1ccc(C2CC(=O)NC(SCc3ccccc3)=C2C#N)cc1 (configuration not stated),-17.3
24,CCOC(=O)c1c(NC(=O)C(OC(C)=O)c2ccccc2)sc2c1CCC2 (configuration not stated),10.1

row,SMILES,displacement [%]
1,COc1c(I)cc(I)cc1/C=N/NC(=O)C1COc2ccccc2O1 (configuration not stated),-10.9
2,O=C(NCc1ccccc1)c1cccc(F)c1,-12.3
3,O=C(O)/C=C/C(=O)NNc1ccccc1[N+](=O)[O-],-4.8
4,Cc1cc(=O)oc2c(I)c(OCc3ccccc3)ccc12,8.7
5,c1ccc(C(c2ccccc2)c2nnc(C(c3ccccc3)c3ccccc3)o2)cc1,-2.3
6,CCC(C(=O)Nc1cccc(C)c1)c1ccccc1 (configuration not stated),13.2
7,CN(C)c1ccc(/C=C2\SC(N3CCCC3)=NC2=O)cc1,-20
8,C=CCOc1ccc(/C=C2\C(=O)NC(=O)N(c3ccc(F)cc3)C2=O)cc1OC,-6
9,C/C(=N\NC(=O)C(O)c1ccccc1)c1ccc2c(c1)CCCC2 (configuration not stated),1.3
10,O=C(NCc1ccccn1)C(=O)N/N=C/c1ccc(Br)cc1,-0.3
11,COc1cccc(/C=C/C(=O)c2ccc(Cl)cc2)c1,-2.9
12,Cc1ccc(Cl)cc1NC(=O)CN(c1cccc(Cl)c1)S(C)(=O)=O,-3
13,CCOc1ccc(-n2c(C)c(C(C)=O)c(C(C)=O)c2C)cc1,0.8
14,C(=N\Nc1nn[nH]n1)/c1ccc(OCc2ccccc2)cc1,-5.9
15,O=C(NC1CCCCC1)C1CC(=O)N(c2ccc(Br)cc2)C1 (configuration not stated),-7.6
16,Cc1ccc(N=Cc2ccccc2O)cc1F,-8.4
17,O=C(O)CC1S/C(=N\N=C\c2ccc(N3CCOCC3)cc2)NC1=O (configuration not stated),-4.3
18,CCCCNC(=O)c1cc2ncc(Br)cn2n1,20
19,COc1cc(C(=O)Nc2ccc(C(N)=O)cc2)c([N+](=O)[O-])cc1OC,6.6
20,CC(NC(=O)c1cccs1)c1ccccc1 (configuration not stated),8.2
21,O=C(NCCN1CCOCC1)Nc1ccc(Cl)cc1,9
22,Cc1ccc(Cl)cc1N1C(=O)C2C(c3ccc(Cl)cc3)OC3(C(=O)c4ccccc4C3=O)C2C1=O (configuration not stated),-0.2
23,CC1(C)CC(=O)C2=C(C1)Nc1[nH]c(=O)[nH]c(=O)c1C2c1ccc(O)cc1 (configuration not stated),-1.5
24,C=CCc1c(C)nc2cc(-c3cccc(C)c3)[nH]n2c1=O,10.4

row,SMILES,displacement [%]
1,CC(=O)C(C(C)=O)c1cc(NS(=O)(=O)c2ccc(C)cc2)c2ccccc2c1O,3.6
2,O=C(O)c1ccc(NC2=NS(=O)(=O)c3ccccc32)cc1,-8
3,O=C(O)COc1ccccc1/C=N/NC(=O)Cn1nnc(-c2ccccc2Cl)n1,-1.4
4,Cc1cccn2c(=O)c(/C=C3\SC(=S)NC3=O)c(NCCCn3ccnc3)nc12,2.5
5,O=C(O)C1CCCCC1C(=O)Nc1cccc([N+](=O)[O-])c1 (configuration not stated),-8.5
6,Cn1cc(/C=C/c2nc3ccccc3c(=O)n2-c2cccc([N+](=O)[O-])c2)c2ccccc21,-10.1
7,CC1(C)CC(NS(=O)(=O)c2ccc(Cl)cc2)CC(C)(C)N1,12.7
8,COc1ccc(/C=N/N=C(N)N)cc1,-1.8
9,CC1CCN(CCC(=O)N/N=C/c2c[nH]c3ccccc23)CC1,-2.4
10,O=C(CN(c1cccc(Cl)c1)S(=O)(=O)c1ccccc1)NCc1ccncc1,1
11,O=C(O)c1cc(Br)ccc1NC(=O)C1CCCCC1,2.6
12,Cc1ccc(CNC(=O)C(=O)NCc2cccnc2)cc1,6.6
13,CCN(C(=O)CN1C(=O)c2ccccc2C1=O)c1ccccc1C,9.1
14,CCOC(=O)C1=C(C)NC2=C(C(=O)CCC2)C1c1ccc(N(CC)CC)cc1 (configuration not stated),-2.1
15,CC1C(c2ccccc2)=[N+]([O-])C(C)(c2cccs2)N1O (configuration not stated),9.1
16,CCOc1cc(/C=N/NC(=O)C(=O)Nc2cccc(OC)c2)ccc1O,9.8
17,O=C(CCCCC(=O)NN=Cc1cc(Br)ccc1O)NN=Cc1cc(Br)ccc1O,9.4
18,CCn1cc(/C=C2\C(=O)NC(=O)N(c3ccc(Cl)cc3)C2=O)c2ccccc21,-18.6
19,Cn1cnnc1SCc1ccccc1,18.6
20,COc1cc(C(=O)Nc2cccc(S(N)(=O)=O)c2)ccc1OCc1ccc(Cl)cc1,-7.2
21,CCOc1cc(C=C2C(=O)NC(=S)N(CC)C2=O)ccc1O,7.3
22,NC(=O)c1ccc(CN2CCN(Cc3ccccc3)CC2)cc1,5.9
23,Cc1cccc(N2C(=O)/C(=C/c3ccc(C(C)C)cc3)SC2=S)c1,-7.3
24,O=C(CSc1nc2ccccc2o1)c1ccc(Cl)cc1Cl,-0.9
